Experimental findings from the supplement of paper PMC12217912 are described below.

This is one part of the list. The full chains were built here from the parent and the listed change. Values near 0.05 are background.

B1: TEV protease; numbered along this chain (parent)
chain: MGESLFKGPRDYNPISSSICHLTNESDGHTTSLYGIGFGPFIITNKHLFRRNNGTLVVQSLHGVFKVKDTTTLQQHLVDGRDMIIIRMPKDFPPFPQKLKFREPQREERICLVTTNFQTKSMSSMVSDTSCTFPSGDGIFWKHWIQTKDGQCGSPLVSTRDGFIVGIHSASNFTNTNNYFTSVPKNFMELLTNQEAQQWVSGWRLNADSVLWGGHKVFMVKPEEPFQPVKEATQL

Variants of B1 are the subject of this test. In words: raw area under fraction-flipped curve 0-4 h after induction (AUC4h, not background-subtracted), DNA-recorder readout of cleavage of the substrate (dimensionless); higher = more cleavage of the substrate by the protease variant. Conditions: temperature: 34 °C; time window: 0-4 h after rhamnose induction. How it is done: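 In vivo DNA recorder in E. coli TOP10(DE3) ΔrhaA at 34 °C. Each TEVp single-site mutant (parent TEVp 0) is paired with a single-site variant of the 7-mer TEVs (canonical ENLYFQ|S). The substrate sits between flexible linkers in a Bxb1-sfGFP-TEVs-SsrA fusion, so cleavage stabilises Bxb1 and speeds flipping of a recombination array, read by NGS. The value is the raw area under the fraction-flipped curve over 0-4 h after rhamnose induction (AUC4h), with ≥20 reads per time point. It is not background-subtracted; inactive controls average about 0.047.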
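Also: Bxb1 expression induced with 0.2% (w/v) L-rhamnose at OD600 near 0.5, cultures sampled hourly, flipped fraction per protease–substrate barcode pair counted by paired-end Illumina sequencing.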

MGESLFKGPRDYNPISSSICHLTNESDGHTTSLIGIGFGPFIITNKHLFRRNNGTLVVQSLHGVFKVKDTTTLQQHLVDGRDMIIIRMPKDFPPFPQKLKFREPQREERICLVTTNFQTKSMSSMVSDTSCTFPSGDGIFWKHWIQTKDGQCGSPLVSTRDGFIVGIHSASNFTNTNNYFTSVPKNFMELLTNQEAQQWVSGWRLNADSVLWGGHKVFMVKPEEPFQPVKEATQL [Y34I]: the “area with substrate ENLYFQA” value came out at 0.0417, the “area with substrate ENLYFQC” value is 0.108, the “area with substrate ENLYFQF” value amounted to 0.0437 and the “area with substrate ENLYFQH” value worked out at 0.0645. The “area with substrate ENLYFQI” value was 0.0601, the “area with substrate ENLYFQL” value amounted to 0.0458, the “area with substrate ENLYFQM” value worked out at 0.0765 and the “area with substrate ENLYFQN” value came out at 0.0745. Also, the “area with substrate ENLYFQQ” value was 0.0493, the “area with substrate ENLYFQR” value was determined as 0.0486, the “area with substrate ENLYFQS” value stood at 0.0853 and the “area with substrate ENLYFQT” value amounted to 0.0438.
In the case of MGESLFKGPRDYNPISSSICHLTNESDGHTTSLYGIGFGPFIITNKHLFRRNNNTLVVQSLHGVFKVKDTTTLQQHLVDGRDMIIIRMPKDFPPFPQKLKFREPQREERICLVTTNFQTKSMSSMVSDTSCTFPSGDGIFWKHWIQTKDGQCGSPLVSTRDGFIVGIHSASNFTNTNNYFTSVPKNFMELLTNQEAQQWVSGWRLNADSVLWGGHKVFMVKPEEPFQPVKEATQL [G54N], the “area with substrate ENLYFQA” value came to 0.0673, the “area with substrate ENLYFQC” value is 0.0721, the “area with substrate ENLYFQF” value was found to be 0.078 and the “area with substrate ENLYFQI” value turned out to be 0.0635. Further, the “area with substrate ENLYFQK” value turned out to be 0.0497, the “area with substrate ENLYFQL” value was 0.0595, the “area with substrate ENLYFQM” value stood at 0.0564 and the “area with substrate ENLYFQN” value came out at 0.0587. Further, the “area with substrate ENLYFQP” value stood at 0.0537, the “area with substrate ENLYFQR” value was found to be 0.0546, the “area with substrate ENLYFQS” value worked out at 0.0675 and the “area with substrate ENLYFQT” value came out at 0.0598. Also, the “area with substrate ENLYFQV” value is 0.0556 and the “area with substrate ENLYFQW” value amounted to 0.0589.
As for MGESLFKGPRDYNPISSSICHLTNESDGHTTSLYGIGFGPFIITNKHLFRRNNGTLVVQSLHGVFKVKDTTTLQQHLVDGRDMIIIRMPKDFPPFPQKLKFREPQREERICLVTTNFQTKSMSSMVSDTSCTFPSGDGIFWKHWIQTKDGQCGSPLVSTRDGFIVGIHSASNFTNTNNYFTSVPKNFMELLTNQEHQQWVSGWRLNADSVLWGGHKVFMVKPEEPFQPVKEATQL [A196H], the “area with substrate ENLYFQA” value stood at 0.115, the “area with substrate ENLYFQC” value is 0.12, the “area with substrate ENLYFQD” value is 0.0794 and the “area with substrate ENLYFQF” value is 0.0713. In addition, the “area with substrate ENLYFQG” value was found to be 0.143, the “area with substrate ENLYFQH” value worked out at 0.0798, the “area with substrate ENLYFQI” value came out at 0.0709 and the “area with substrate ENLYFQK” value is 0.0563. Besides, the “area with substrate ENLYFQL” value turned out to be 0.0701, the “area with substrate ENLYFQM” value was found to be 0.0916, the “area with substrate ENLYFQN” value is 0.0818 and the “area with substrate ENLYFQP” value is 0.0525. For the same variant, the “area with substrate ENLYFQQ” value amounted to 0.0809, the “area with substrate ENLYFQS” value worked out at 0.108, the “area with substrate ENLYFQT” value was found to be 0.0626 and the “area with substrate ENLYFQV” value was 0.0495. The “area with substrate ENLYFQW” value came to 0.0493.
Regarding MGESLFKGPRDYNPISSSICHLTNESDGHTTSLYGIGFGPFIITNKHLFRRNNGTLVVQSLHGVFKVKDTTTLQQHLVDGRDMIIIRMPKDFPPFPQKLKFREPQREERICLVTTNFQTKSMSSMVSDTSCTFPYGDGIFWKHWIQTKDGQCGSPLVSTRDGFIVGIHSASNFTNTNNYFTSVPKNFMELLTNQEAQQWVSGWRLNADSVLWGGHKVFMVKPEEPFQPVKEATQL [S135Y], the “area with substrate ENLYFQA” value was 0.0663, the “area with substrate ENLYFQC” value was 0.0569, the “area with substrate ENLYFQD” value turned out to be 0.0574 and the “area with substrate ENLYFQF” value turned out to be 0.0532. Moreover, the “area with substrate ENLYFQG” value came out at 0.0977, the “area with substrate ENLYFQH” value turned out to be 0.0548, the “area with substrate ENLYFQI” value was 0.0633 and the “area with substrate ENLYFQL” value came out at 0.0572. In addition, the “area with substrate ENLYFQM” value was 0.0514, the “area with substrate ENLYFQN” value is 0.0609, the “area with substrate ENLYFQP” value was found to be 0.0554 and the “area with substrate ENLYFQQ” value turned out to be 0.0535. In addition, the “area with substrate ENLYFQR” value was found to be 0.054, the “area with substrate ENLYFQS” value is 0.0657, the “area with substrate ENLYFQT” value was 0.0675 and the “area with substrate ENLYFQV” value came out at 0.0719. Moreover, the “area with substrate ENLYFQW” value came out at 0.057.
On to MGESLFKGPRDYNPISSSICHLTNESDGHTTSLYGIGFGPFIITNKHLFRRNNGTLVVQSLHGVFKVKDTTTLQQHLVDGRDMIIIRMPKDFPPFPQKLKFREPQREERICLVTTNFQTKSMSSMVSDTSCTFPSGDGIFWKHWIQTKDGQCGSPLVSTRDGFIVGIHSASNFTNTNNYFTSVPFNFMELLTNQEAQQWVSGWRLNADSVLWGGHKVFMVKPEEPFQPVKEATQL [K185F], for which the “area with substrate ENLYFQA” value was found to be 0.135, the “area with substrate ENLYFQC” value was 0.101, the “area with substrate ENLYFQG” value is 0.0753 and the “area with substrate ENLYFQI” value turned out to be 0.0667. For the same variant, the “area with substrate ENLYFQL” value stood at 0.0661, the “area with substrate ENLYFQM” value worked out at 0.0907, the “area with substrate ENLYFQN” value was found to be 0.12 and the “area with substrate ENLYFQP” value worked out at 0.0899. For the same variant, the “area with substrate ENLYFQR” value turned out to be 0.0788, the “area with substrate ENLYFQS” value was 0.106, the “area with substrate ENLYFQT” value was found to be 0.0563 and the “area with substrate ENLYFQV” value worked out at 0.074. Moreover, the “area with substrate ENLYFQW” value amounted to 0.0675 and the “area with substrate ENLYFQY” value turned out to be 0.0927.
Turning to MGESLFKGPRDYNPISSSICHLTNESDGHTTSLYGIGFGPFIITNKHLFRRNNGTLVVQSLHGVFKVKDTTTLQQHLVDGRDMIIIRMPKDFPPWPQKLKFREPQREERICLVTTNFQTKSMSSMVSDTSCTFPSGDGIFWKHWIQTKDGQCGSPLVSTRDGFIVGIHSASNFTNTNNYFTSVPKNFMELLTNQEAQQWVSGWRLNADSVLWGGHKVFMVKPEEPFQPVKEATQL [F95W], the “area with substrate ENLYFQA” value was 0.101, the “area with substrate ENLYFQC” value is 0.144, the “area with substrate ENLYFQD” value turned out to be 0.0851 and the “area with substrate ENLYFQF” value was 0.0718. The “area with substrate ENLYFQG” value was 0.0687, the “area with substrate ENLYFQH” value turned out to be 0.0704, the “area with substrate ENLYFQN” value amounted to 0.0697 and the “area with substrate ENLYFQP” value is 0.0621. Besides, the “area with substrate ENLYFQR” value amounted to 0.054, the “area with substrate ENLYFQS” value was found to be 0.104, the “area with substrate ENLYFQV” value was determined as 0.0633 and the “area with substrate ENLYFQY” value worked out at 0.071.
With MGESLFKGPRDYNPISSSIHHLTNESDGHTTSLYGIGFGPFIITNKHLFRRNNGTLVVQSLHGVFKVKDTTTLQQHLVDGRDMIIIRMPKDFPPFPQKLKFREPQREERICLVTTNFQTKSMSSMVSDTSCTFPSGDGIFWKHWIQTKDGQCGSPLVSTRDGFIVGIHSASNFTNTNNYFTSVPKNFMELLTNQEAQQWVSGWRLNADSVLWGGHKVFMVKPEEPFQPVKEATQL [C20H], the “area with substrate ENLYFQA” value came out at 0.0578, the “area with substrate ENLYFQC” value was 0.0546, the “area with substrate ENLYFQG” value worked out at 0.0457 and the “area with substrate ENLYFQH” value is 0.0526. Besides, the “area with substrate ENLYFQI” value came out at 0.0601, the “area with substrate ENLYFQL” value was 0.0483, the “area with substrate ENLYFQN” value turned out to be 0.0485 and the “area with substrate ENLYFQP” value amounted to 0.0394. In addition, the “area with substrate ENLYFQS” value came out at 0.0507, the “area with substrate ENLYFQT” value is 0.0474, the “area with substrate ENLYFQV” value was 0.0225 and the “area with substrate ENLYFQW” value is 0.0342.
MGESLFKGPRDYNPISSSICHLTNESDGHTTSLYGIGFGEFIITNKHLFRRNNGTLVVQSLHGVFKVKDTTTLQQHLVDGRDMIIIRMPKDFPPFPQKLKFREPQREERICLVTTNFQTKSMSSMVSDTSCTFPSGDGIFWKHWIQTKDGQCGSPLVSTRDGFIVGIHSASNFTNTNNYFTSVPKNFMELLTNQEAQQWVSGWRLNADSVLWGGHKVFMVKPEEPFQPVKEATQL [P40E]: the “area with substrate ENLYFQA” value worked out at 0.117, the “area with substrate ENLYFQC” value turned out to be 0.153, the “area with substrate ENLYFQD” value worked out at 0.0808 and the “area with substrate ENLYFQH” value was 0.0864. Also, the “area with substrate ENLYFQI” value was 0.0702, the “area with substrate ENLYFQK” value was found to be 0.0611, the “area with substrate ENLYFQL” value amounted to 0.0584 and the “area with substrate ENLYFQP” value is 0.0474. For the same variant, the “area with substrate ENLYFQS” value worked out at 0.111, the “area with substrate ENLYFQT” value stood at 0.0564 and the “area with substrate ENLYFQV” value turned out to be 0.0529.
Regarding MGESLFKGPRDYNPISSSICHLTNESDGHTTSLYGIGFGPFIITNKHLFRRNNGTLVVQSLHGVFKVKDWTTLQQHLVDGRDMIIIRMPKDFPPFPQKLKFREPQREERICLVTTNFQTKSMSSMVSDTSCTFPSGDGIFWKHWIQTKDGQCGSPLVSTRDGFIVGIHSASNFTNTNNYFTSVPKNFMELLTNQEAQQWVSGWRLNADSVLWGGHKVFMVKPEEPFQPVKEATQL [T70W], the “area with substrate ENLYFQA” value amounted to 0.0636, the “area with substrate ENLYFQC” value worked out at 0.0754, the “area with substrate ENLYFQD” value came to 0.0606 and the “area with substrate ENLYFQE” value stood at 0.0597. For the same variant, the “area with substrate ENLYFQF” value amounted to 0.0764, the “area with substrate ENLYFQG” value turned out to be 0.0126, the “area with substrate ENLYFQI” value came to 0.0615 and the “area with substrate ENLYFQK” value stood at 0.0578. Also, the “area with substrate ENLYFQL” value amounted to 0.0575, the “area with substrate ENLYFQM” value is 0.0674, the “area with substrate ENLYFQN” value worked out at 0.0582 and the “area with substrate ENLYFQP” value worked out at 0.0834. The “area with substrate ENLYFQQ” value was 0.0729, the “area with substrate ENLYFQR” value turned out to be 0.0601, the “area with substrate ENLYFQS” value stood at 0.0667 and the “area with substrate ENLYFQT” value worked out at 0.0588. In addition, the “area with substrate ENLYFQV” value was 0.0569, the “area with substrate ENLYFQW” value was 0.0609 and the “area with substrate ENLYFQY” value was 0.0574.
